From paper PMC9911399, “Two distinct binding modes provide the RNA-binding protein RbFox with extraordinary sequence specificity”
Where a chain is given by its changes, count along the chain named. The list shows a part of the results.

T1: RBFOX1 RRM (Homo sapiens, UniProt Q9NWB1 109-208)
T1 sequence: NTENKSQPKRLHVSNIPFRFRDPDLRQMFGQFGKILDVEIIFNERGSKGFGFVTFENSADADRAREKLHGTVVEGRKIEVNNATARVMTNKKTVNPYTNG

B1: AUUAAGU (DNA:RNA)
RNA: GGGAGACCGGAAUUCAGAUUGUCCAUUAAGUUUAAAUCCCGUCGUAGCCACCA
DNA 1: CAATCTGAATTCCGGTCTCCC
DNA 2: TGGTGGCTACGACGGGATT
B2: CUCGAUA (DNA:RNA)
RNA: B1 RNA with A25C, U27C, A28G, G30U, U31A
DNA 1: CAATCTGAATTCCGGTCTCCC
DNA 2: TGGTGGCTACGACGGGATT
B3: CUCGCGG (DNA:RNA)
RNA: B1 RNA with A25C, U27C, A28G, A29C, U31G
DNA 1: CAATCTGAATTCCGGTCTCCC
DNA 2: TGGTGGCTACGACGGGATT
B4: CACCUCC (DNA:RNA)
RNA: GGGAGACCGGAAUUCAGAUUGUCCCACCUCCUUAAAUCCCGUCGUAGCCACCA
DNA 1: CAATCTGAATTCCGGTCTCCC
DNA 2: TGGTGGCTACGACGGGATT
B5: UUCUGAC (DNA:RNA)
RNA: B4 RNA with C25U, A26U, C28U, U29G, C30A
DNA 1: CAATCTGAATTCCGGTCTCCC
DNA 2: TGGTGGCTACGACGGGATT
B6: GUUUCAU (DNA:RNA)
RNA: B1 RNA with A25G, A28U, A29C, G30A
DNA 1: CAATCTGAATTCCGGTCTCCC
DNA 2: TGGTGGCTACGACGGGATT
B7: AGGUUAG (DNA:RNA)
RNA: B1 RNA with U26G, U27G, A28U, A29U, G30A, U31G
DNA 1: CAATCTGAATTCCGGTCTCCC
DNA 2: TGGTGGCTACGACGGGATT
B8: AGUUCCC (DNA:RNA)
RNA: B1 RNA with U26G, A28U, A29C, G30C, U31C
DNA 1: CAATCTGAATTCCGGTCTCCC
DNA 2: TGGTGGCTACGACGGGATT
B9: GCGUAGC (DNA:RNA)
RNA: B1 RNA with A25G, U26C, U27G, A28U, U31C
DNA 1: CAATCTGAATTCCGGTCTCCC
DNA 2: TGGTGGCTACGACGGGATT
B10: AACGUAU (DNA:RNA)
RNA: B4 RNA with C25A, C28G, C30A, C31U
DNA 1: CAATCTGAATTCCGGTCTCCC
DNA 2: TGGTGGCTACGACGGGATT
B11: ACCCGCG (DNA:RNA)
RNA: B4 RNA with C25A, A26C, U29G, C31G
DNA 1: CAATCTGAATTCCGGTCTCCC
DNA 2: TGGTGGCTACGACGGGATT
B12: UUCUGGC (DNA:RNA)
RNA: B1 RNA with A25U, U27C, A28U, A29G, U31C
DNA 1: CAATCTGAATTCCGGTCTCCC
DNA 2: TGGTGGCTACGACGGGATT
B13: AUUGUGU (DNA:RNA)
RNA: B1 RNA with A28G, A29U
DNA 1: CAATCTGAATTCCGGTCTCCC
DNA 2: TGGTGGCTACGACGGGATT
B14: GCAUUAG (DNA:RNA)
RNA: B4 RNA with C25G, A26C, C27A, C28U, C30A, C31G
DNA 1: CAATCTGAATTCCGGTCTCCC
DNA 2: TGGTGGCTACGACGGGATT
B15: UUCCAGA (DNA:RNA)
RNA: B1 RNA with A25U, U27C, A28C, U31A
DNA 1: CAATCTGAATTCCGGTCTCCC
DNA 2: TGGTGGCTACGACGGGATT
B16: UUCGUGU (DNA:RNA)
RNA: B1 RNA with A25U, U27C, A28G, A29U
DNA 1: CAATCTGAATTCCGGTCTCCC
DNA 2: TGGTGGCTACGACGGGATT
B17: ACCUCCG (DNA:RNA)
RNA: B4 RNA with C25A, A26C, C28U, U29C, C31G
DNA 1: CAATCTGAATTCCGGTCTCCC
DNA 2: TGGTGGCTACGACGGGATT
B18: AGACUUA (DNA:RNA)
RNA: B4 RNA with C25A, A26G, C27A, C30U, C31A
DNA 1: CAATCTGAATTCCGGTCTCCC
DNA 2: TGGTGGCTACGACGGGATT
B19: CCUAAGA (DNA:RNA)
RNA: B1 RNA with A25C, U26C, U31A
DNA 1: CAATCTGAATTCCGGTCTCCC
DNA 2: TGGTGGCTACGACGGGATT
B20: GAAUAAU (DNA:RNA)
RNA: B1 RNA with A25G, U26A, U27A, A28U, G30A
DNA 1: CAATCTGAATTCCGGTCTCCC
DNA 2: TGGTGGCTACGACGGGATT

Target: T1, RBFOX1 RRM
Experiment: EMSA; HiTS-Eq, 1 nM pool, 10 min; buffer printed only for the single-RNA assays: 10 mM Tris pH 7.5, 150 mM NaCl, 3.4 mM EDTA, 0.001% NP-40, 30 C
Details: tags: His6 N-terminal (pET28a); label: 5' 32P
How it was run: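 These values rest on relative association constants, computed from read-count changes of each RNA species versus the control reaction and normalised to the cognate motif. Reads came from free RNA recovered by 8% native PAGE after purified RbFox RRM (wild type or mutant) at increasing concentrations was equilibrated for 10 min in 50 µL with 1 nM of a 5′-radiolabelled pool with 7 randomized nucleotides and DNA-annealed flanks.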

| Binder | binding signal |
| --- | --- |
| B1 | 0.00481 KA relative to UGCAUGU |
| B2 | 0.00623 KA relative to UGCAUGU |
| B3 | 0.00519 KA relative to UGCAUGU |
| B4 | 0.000193 KA relative to UGCAUGU |
| B5 | 0.0186 KA relative to UGCAUGU |
| B6 | 0.00864 KA relative to UGCAUGU |
| B7 | 0.0128 KA relative to UGCAUGU |
| B8 | 0.00864 KA relative to UGCAUGU |
| B9 | 0.0152 KA relative to UGCAUGU |
| B10 | 0.00272 KA relative to UGCAUGU |
| B11 | 0.00176 KA relative to UGCAUGU |
| B12 | 0.0125 KA relative to UGCAUGU |
| B13 | 0.0145 KA relative to UGCAUGU |
| B14 | 0.0137 KA relative to UGCAUGU |
| B15 | 0.0088 KA relative to UGCAUGU |
| B16 | 0.0229 KA relative to UGCAUGU |
| B17 | 0.00287 KA relative to UGCAUGU |
| B18 | 0.00322 KA relative to UGCAUGU |
| B19 | 0.00773 KA relative to UGCAUGU |
| B20 | 0.00386 KA relative to UGCAUGU |
